Results from PubChem BioAssay AID1346428 (National Center for Advancing Translational Sciences (NCATS), 2018).
“And” between values parts separate entries of the source, which are not always exact repeats. Identical values can stand only once. Out of some 48,000 compounds screened, about 1,200 (2.5%) were called active. About 2% were inconclusive and are not listed.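 Rule for the calls: active = activation of at least 60% and not above a set upper limit (about 1 call in 100 departs from these limits); inconclusive = activation of 40% to 60%, or above that upper limit; inactive = activation under 40%.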 The list shows a part of the results.

target: Probable G-protein coupled receptor 32 (Homo sapiens) (UniProt O75388); test: qHTS for Agonists of Human Resolvin D1 Receptor DRV1; conditions: CHO-K1 GPR32 beta-arrestin PathHunter luminescence, 90 min; at 76.9 µM; hits give high values; zero percent set by DMSO-only wells; note: 0% is about no effect
Outline: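 Engineered CHO-K1 line co-expressing GPR32-ProLink and EA-beta-arrestin. Compound treatment lasted 90 min at 37 °C. Luminescence was recorded after 1 h with substrate at ambient temperature, relative to DMSO basal wells.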

UniProt O75388, sequence (O75388 whole entry, looked up): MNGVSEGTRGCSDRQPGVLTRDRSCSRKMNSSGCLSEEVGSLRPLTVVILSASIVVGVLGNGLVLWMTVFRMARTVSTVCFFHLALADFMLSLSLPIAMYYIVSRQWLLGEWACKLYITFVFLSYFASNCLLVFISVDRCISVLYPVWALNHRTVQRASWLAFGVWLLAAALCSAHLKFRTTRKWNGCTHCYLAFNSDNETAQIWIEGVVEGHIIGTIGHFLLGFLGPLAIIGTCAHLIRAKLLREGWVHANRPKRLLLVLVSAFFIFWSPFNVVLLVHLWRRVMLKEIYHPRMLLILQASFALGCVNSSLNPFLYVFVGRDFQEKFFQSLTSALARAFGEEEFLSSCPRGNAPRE

Compound | activation
CN1CCN(C(=O)c2ccc3c(c2)N(Cc2ccc(Cl)cc2)C(=O)c2ccccc2S3(=O)=O)CC1 | inactive: 0.0217%
CCc1ccc(N(CC)C(=O)c2sc3nc4n(c(=O)c3c2C)CCCC4)cc1 | inactive: -14.2%
COc1ccccc1NC(=O)CN1C(=O)CCSc2ccccc21 | inactive: -6.85%
Cn1nnnc1SCCCNCc1ccccc1OCc1ccc(F)cc1 | inactive: 0.957%
Cc1cccc(NS(=O)(=O)c2ccc3c(c2)CCN3C(=O)C2CC2)c1C | inactive: 32%
O=C(Cn1c(=O)ccc2cc(S(=O)(=O)N3CCCC3)ccc21)Nc1ccc(Cl)cc1 | inactive: -2.95%
Cc1ccc(Cl)cc1NC(=O)CSCc1cnn(-c2ccccc2)c1-n1cccc1 | inactive: -24.5%
CC(=O)c1cccc(NC(=O)CCCSc2nc(-c3ccco3)cc(C(F)(F)F)n2)c1 | inactive: -8.23%
CCOC(=O)C1CCCN(C(=O)c2ccc3c(c2)N(Cc2ccccc2F)C(=O)c2ccccc2S3=O)C1 (configuration not stated) | inactive: -13.3%
COc1ccc(CCNC(=O)CCn2c(=O)c3ccccc3n(CC(=O)Nc3cc(Cl)ccc3C)c2=O)cc1OC | inactive: 9.66%
c1cnc2c(c1)ccc1cccnc12 | inactive: -2.08%
COc1ccc2c(c1)c(=O)c(S(=O)(=O)c1ccccc1)cn2CC(=O)Nc1ccc2c(c1)OCO2 | inactive: 15.1%
CCCN(C(=O)Cn1ncc2c([nH]c3ccccc32)c1=O)c1ccc(F)cc1 | inactive: -14.2%
CCc1ccccc1NC(=O)Nc1cc(C(=O)NCc2ccccc2OC)ccc1N1CCCC1 | inactive: -16.1%
COc1ccc(NC(=O)CN2C(=O)C(c3ccc(C)cc3)=NC23CCCCCC3)cc1Cl | inactive: 10.9%
CCOC(=O)C(C)(C)Oc1ccc(Cl)cc1 | inactive: -1.06% and inactive: 8.3%
CN(C)CCNC(=O)C(=O)NCC(c1cccnc1)N1CCN(c2ccccc2)CC1 (configuration not stated) | inactive: 2.97%
COc1cccc(-c2nc(SCC(=O)NCC3CCCO3)c(-c3ccc(Cl)cc3)[nH]2)c1 (configuration not stated) | inactive: -10.9%
Cc1ccc(NC(=O)c2ccc(CNS(=O)(=O)c3ccc4c(c3)C(C)(C)C(=O)N4C)cc2)cc1 | inactive: 5.77%
COc1ccc(N2CCN(C(=O)Cn3c(-c4cccs4)cc4ccccc43)CC2)cc1 | inactive: -26.8%
Cc1ccc(C)c(Cn2c(=O)n(-c3ccc(F)cc3)c(=O)c3sc4ccccc4c32)c1 | inactive: 14.2%

Compound | activation
O=C(CSc1nc2ccsc2c(=O)n1Cc1ccccc1F)NCc1ccccc1Cl | inactive: -29.2%
CC(=O)N1CCc2cc(S(=O)(=O)NC(Cc3ccccc3)C(=O)Nc3ccc(C)cc3C)ccc21 (configuration not stated) | inactive: -2.67%
Cc1ccc(C(=O)Nc2ccc3oc(-c4cc(Br)ccc4Cl)nc3c2)cc1 | inactive: 17.5%
CCC(=O)N1CCCc2cc(S(=O)(=O)N3CCC(C(=O)Nc4cccc(Cl)c4)CC3)ccc21 | inactive: -6.63%
O=C(Nc1cccc(Cl)c1Cl)c1cc(S(=O)(=O)N2CCCc3ccccc32)ccc1F | inactive: -8.15%
COc1cc(OC)c(N(C)C(=O)CSc2c3c(nc4ccc(Cl)cc24)CCCC3)cc1Cl | inactive: -34.9%
CCc1ccc(NC(=O)CC2C(=O)N(c3ccc(OC)cc3)C(=O)N2Cc2cccs2)cc1 (configuration not stated) | inactive: -19.7%
CCOC(=O)c1cnc2c(C)cc(C)cc2c1Nc1ccccc1OCC | inactive: -5.86%
Cc1nn2c(-c3ccco3)ccnc2c1-c1ccc(Cl)cc1 | inactive: -10.2%
O=c1cc2nc(-c3ccccc3)nc(SCCOc3ccc(Cl)cc3)n2[nH]1 | inactive: 9.42%
CN1CCc2cccc3c2[C@H]1Cc1ccc(O)c(O)c1-3 | inactive: -13.9%
CCCNC(=O)Cn1nc(-c2ccc(C)c(C)c2)c2cnc3ccc(OC)cc3c21 | inactive: -3.87%
COc1ccccc1-c1nc2c(c(SCc3cc(C)ccc3C)n1)Cc1c(CO)cnc(C)c1O2 | inactive: 2.42%
Cc1ccc(CNC(=O)c2cc3c(=O)oc4ccc(C)cc4c3s2)cc1 | inactive: -7.67%
COc1ccc(N(CC(=O)N2CCN(c3ccccc3F)CC2)S(=O)(=O)c2c(C)noc2C)cc1 | inactive: -9.14%
COc1ccc2oc(=O)c(C(=O)NCCc3c(C)[nH]c4ccc(C)cc34)cc2c1 | inactive: -0.74%
COc1ccccc1NC(=O)Cn1cnc2ccc(S(=O)(=O)N3CCC(C)CC3)cc2c1=O | inactive: 14.7%
COCCCN1C(=O)c2[nH]nc(-c3cc(C)ccc3O)c2C1c1ccc(F)cc1 (configuration not stated) | inactive: -19%
COc1ccc(CNC(=O)c2cc3sccc3n2Cc2ccc(F)cc2)cc1 | inactive: 19.9%
Cc1cc(OCC(=O)N(Cc2ccc(N(C)C)cc2)Cc2ccco2)cc(C)c1Cl | inactive: -32.5%
CCOC(=O)c1ccc(OC(=O)c2cn(-c3ccc(C)cc3)c(=O)c3ccccc23)cc1 | inactive: 10.5%

Compound | activation
Cc1nn(-c2ccccc2)c(-n2cccc2)c1C(=O)N1CCN(c2ccccc2)CC1 | inactive: -5.23%
COc1ccc(NC(=O)Cn2c(=O)n(Cc3ccco3)c(=O)c3sc4ccccc4c32)c(OC)c1 | inactive: 19.8%
Cc1ccc(NC(=O)C2CCCN(C(=O)c3cnn(-c4ccccc4)c3-n3cccc3)C2)cc1 (configuration not stated) | inactive: -8.72%
CN(C)c1ccc(O)c2c1C[C@H]1C[C@H]3[C@H](N(C)C)C(=O)C(C(N)=O)=C(O)[C@@]3(O)C(=O)C1=C2O | inactive: -59.8%
COc1ccc(CNCCC(c2ccc(C)cc2)c2ccco2)cc1 (configuration not stated) | inactive: -7.58%
O=C(Nc1noc2ccccc12)c1cccc(Cl)c1Cl | inactive: -6.03%
Cc1ccccc1NC(=O)C(Cc1ccccc1)N1Cc2ccccc2C1=O (configuration not stated) | inactive: -23.3%
COc1ccccc1/C=C/c1onc(C)c1S(=O)(=O)N1CCC(C(=O)N2CCC(C)CC2)CC1 | inactive: -6.77%
CCc1nnc(NC(=O)CSc2nc3c([nH]c4ccccc43)c(=O)n2-c2ccc(F)cc2)s1 | inactive: -8.49%
Cc1ccc2oc(=O)c3cc(C(=O)Nc4ccc(C)c(F)c4)sc3c2c1 | inactive: -4.85%
Cc1c(Cl)cccc1NC(=O)c1cc(S(=O)(=O)N2CCCCC2)cn1C | inactive: 19.2%
Cc1ccc(-n2nc(C)c3c(C)cc(=O)n(CC(=O)Nc4cc(Cl)ccc4C)c32)cc1 | inactive: -5.34%
Nc1ccc2oc(-c3ccccc3Br)nc2c1 | inactive: 8.72%
Cc1cccn2c(=O)cc(COc3ccc(NC(=O)C(C)C)cc3)nc12 | inactive: 0.42%
COC(=O)c1sccc1S(=O)(=O)N(CC(=O)Nc1ccccc1C)c1ccc(Cl)cc1 | inactive: -18.9%
Cc1ccccc1NC(=O)CSc1nc2ccc(NC(=O)CCc3ccccc3)cc2s1 | inactive: 3.99%
COc1ccccc1-c1nnc(C2CCN(S(=O)(=O)c3ccc(CC(C)C)cc3)CC2)o1 | inactive: -19.6%
Nc1c(C(=O)Nc2ccc(C(F)(F)F)cc2)sc2nc(-c3cccs3)ccc12 | active: 70.8%
COc1cccc(-c2nc(SCc3cccc(Br)c3)n3[nH]c(=O)cc3n2)c1 | inactive: 18.5%
O=C(CCc1ccccc1)NCc1ccc2c(c1)CCN2C(=O)c1ccccc1 | inactive: -18.4%
CC(=O)N1CCc2c(sc3c2c(=O)n(CCc2ccccc2)c(=O)n3CC(=O)Nc2ccccc2F)C1 | inactive: -12.5%

Compound | activation
COc1ccccc1NC(=O)c1oc2ccccc2c1NC(=O)Cc1cccs1 | inactive: 7.59%
Cn1cc(C(=O)O)c(=O)c2cc(S(=O)(=O)N3CCOCC3)ccc21 | inactive: -24.8%
COc1cc2c(cc1OC)C(c1ccc(Cl)cc1)N(c1cccc(C#N)c1)C(=O)C2 (configuration not stated) | inactive: -1.09%
COc1ccccc1N1CCN(c2ccc(=O)n(CC(=O)Nc3cc(F)ccc3C)n2)CC1 | inactive: 22.6%
COc1ccc(-n2c(SCC(=O)c3ccc(Cl)cc3)nc3c([nH]c4ccccc43)c2=O)cc1 | inactive: 31.7%
COc1cccc(NC(=O)Cn2c(=O)n(-c3ccccc3)c(=O)c3ccc(C(=O)NCc4ccc5c(c4)OCO5)cc32)c1 | inactive: -16.2%
CCC(NC(C)C)C(O)c1ccc(O)c(O)c1 (configuration not stated) | inactive: 14.1%
Cn1cc(S(=O)(=O)N2CCCCCC2)cc1C(=O)N1CCN(c2ccccc2F)CC1 | inactive: -5.64%
COc1ccc(CCNc2ncnc3onc(-c4ccc(Cl)cc4)c23)c(OC)c1 | inactive: 20.2%
CCc1ccc(NC(=O)CN2C(=O)C3CCCN3c3ccc(S(=O)(=O)N(CC)CC)cc32)cc1 (configuration not stated) | inactive: -18.6%
Cc1c(CC(=O)N2CCCCC2)c(=O)oc2cc(O)ccc12 | inactive: 10.1%
Cc1ccccc1Nc1sc(C(=O)c2ccccc2)c(N)c1S(C)(=O)=O | inactive: -32.2%
CCC(Cc1c(I)cc(I)c(N)c1I)C(=O)O (configuration not stated) | inactive: -4.76%
Cc1ccc(N(CC(O)Cn2c3ccccc3c3ccccc32)S(=O)(=O)c2ccc(F)cc2)cc1 (configuration not stated) | inactive: -6.9%
Cc1cc(NC(=O)CSc2nc(-c3cccc(F)c3)nc3c2c(=O)n(C)c(=O)n3C)no1 | inactive: -2.82%
CCc1ccc(NC(=O)Cn2c(=O)n(CCCC(=O)NCc3ccccc3Cl)c(=O)c3ccccc32)cc1 | inactive: -4.45%
CCOC(=O)c1ccc(N2CC3=C(C2=O)C(c2ccc(OC)cc2)NC(=O)N3C)cc1 (configuration not stated) | inactive: 0.404%
COc1ccc2c(Sc3ccc(C)cc3)c(C(=O)NCC(C)c3ccccc3)[nH]c2c1 (configuration not stated) | inactive: -6.33%
CCn1cc(C(=O)N2CCN(c3cccc(C)c3)C(C)C2)c(=O)c2cc(S(=O)(=O)N3CCOCC3)ccc21 (configuration not stated) | inactive: 5.15%
